B1: Caulobacter ParB omega fusion; a variant is named by its letters at X, in order, B8GW30 (parent)
chain: MESVVVGEPGMSEGRRGLGRGLSALLGEVDAAPAQAPGEQLGGSREAPIEILQRNPDQPRRTFREEDLEDLSNSIREKGVLQPILVRPSPDTAGEYQIVAGERAWRAAQRAGLKTVPIMVRELDDLAVLEIGIIENVQRADLNVLEEALSYKVLMEKFERTQENIAQTIGKSXSHVANXMRLLXLPDEVQSYLVSGELTAXHARAIAAAADPVALAKQIIEGGLSVRETEALARKAPNLSAGKSKGGRPPRVKDTDTQALESDLSSVLGLDVSIDHRGSTGTLTITYATLEQLDDLCNRLTRGI

The full ranking holds about 81,000 sequences; the median of “one-hybrid fitness for binding NBS DNA” is about -0.1, and the highest 2% start at about 0.36. The list shows a part of the results. Some results are limits rather than exact numbers.

Consider 153 variants from a collection of fitness landscapes (doi:10.1016/j.celrep.2020.107928).

The assay covers variants of B1. The assay can be described thus: one-hybrid fitness for binding NBS DNA (the Noc-binding site; scaled: cognate 1, non-cognate 0); higher = stronger binding. The settings on record: with NBS DNA site. In a few lines:
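In E. coli USO, a HIS3 reporter with its site placed 19 bp from the promoter was used to select Caulobacter ParB variants randomised at four specificity codons. Growth lasted 48 hours at 37°C on histidine-free M9 containing 0.1 mM IPTG and 5 mM 3-AT. Fitness was taken as the log change in variant-to-wild-type read ratio from Illumina sequencing of pre- and post-selection plasmids, rescaled between the non-cognate and cognate sites.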
For LQNR, the “one-hybrid fitness for binding NBS DNA” value was ≤ 0.2. For WSQR the value was ≤ 0.2; for GPKN, ≤ 0.2; for REIF, ≤ 0.2.

On to IANP, for which the “one-hybrid fitness for binding NBS DNA” value was ≤ 0.2. For AYVA the value was ≤ 0.2; for SKKS, ≤ 0.2; for LSCL, ≤ 0.2.

For EARI, the “one-hybrid fitness for binding NBS DNA” value was ≤ 0.2.

On to LSYW, for which the “one-hybrid fitness for binding NBS DNA” value is ≤ 0.2. For GATY the value was ≤ 0.2.

PLMS: the “one-hybrid fitness for binding NBS DNA” value was ≤ 0.2. For EIGE the value was ≤ 0.2. For RFQM the value was ≤ 0.2.

Consider AFVS, for which the “one-hybrid fitness for binding NBS DNA” value is ≤ 0.2.

Turning to KDYR, the “one-hybrid fitness for binding NBS DNA” value is ≤ 0.2. On to DYAL, for which the “one-hybrid fitness for binding NBS DNA” value was ≤ 0.2.

Consider SAPS, for which the “one-hybrid fitness for binding NBS DNA” value was ≤ 0.2. With QIVS the figure was ≤ 0.2. With LKMK the figure was ≤ 0.2. For the variant HCSC, the “one-hybrid fitness for binding NBS DNA” value is ≤ 0.2. For KTIQ the value was ≤ 0.2; for LPPP, ≤ 0.2; for DWTT, ≤ 0.2.

On to AHTT, for which the “one-hybrid fitness for binding NBS DNA” value is ≤ 0.2.

In the case of EIAY, the “one-hybrid fitness for binding NBS DNA” value was ≤ 0.2. With PRDH the figure was ≤ 0.2; with CAAV, ≤ 0.2. With KRLR the figure was 0.456. With KEKS the figure was ≤ 0.2; with TCLL, ≤ 0.2; with RQFS, 0.206. Take REIG: the “one-hybrid fitness for binding NBS DNA” value is ≤ 0.2. With YPAH the figure was ≤ 0.2; with KKTR, 0.27; with NFAT, ≤ 0.2. With TYEY the figure was ≤ 0.2; with NTTP, ≤ 0.2. For EMNG the value was ≤ 0.2; for NPAL, ≤ 0.2; for WPVT, ≤ 0.2. As to NFAL, the “one-hybrid fitness for binding NBS DNA” value was ≤ 0.2. Turning to VAPD, the “one-hybrid fitness for binding NBS DNA” value was ≤ 0.2. For SYGS the value was ≤ 0.2; for HLNL, ≤ 0.2; for FGHS, ≤ 0.2. For SMNR the value was ≤ 0.2; for RSRM, ≤ 0.2; for LFSV, ≤ 0.2. Regarding GISR, the “one-hybrid fitness for binding NBS DNA” value is ≤ 0.2. With QTKF the figure was 0.43; with IMET, ≤ 0.2; with QGCT, ≤ 0.2.

For MRMC, the “one-hybrid fitness for binding NBS DNA” value was ≤ 0.2. Take VYQG: the “one-hybrid fitness for binding NBS DNA” value was ≤ 0.2. In the case of PHLC, the “one-hybrid fitness for binding NBS DNA” value is ≤ 0.2. For YCKR the value was ≤ 0.2; for SNIT, ≤ 0.2. For SCSK the value was ≤ 0.2; for QEEM, ≤ 0.2. For TYAN the value was ≤ 0.2; for IQST, ≤ 0.2; for IKTR, ≤ 0.2. On to TVKF, for which the “one-hybrid fitness for binding NBS DNA” value is ≤ 0.2. On to KWDR, for which the “one-hybrid fitness for binding NBS DNA” value is ≤ 0.2. For DYCR the value was ≤ 0.2. For DDTA the value was ≤ 0.2. For THYC the value was ≤ 0.2; for VRHS, ≤ 0.2. With VGST, the “one-hybrid fitness for binding NBS DNA” value was ≤ 0.2.

On to YPWG, for which the “one-hybrid fitness for binding NBS DNA” value was ≤ 0.2. Take FTAD: the “one-hybrid fitness for binding NBS DNA” value was ≤ 0.2. For RFYG the value was ≤ 0.2; for TSHT, ≤ 0.2.

Consider ENPG, for which the “one-hybrid fitness for binding NBS DNA” value is ≤ 0.2. As for VPLT, the “one-hybrid fitness for binding NBS DNA” value was ≤ 0.2. In the case of YPVW, the “one-hybrid fitness for binding NBS DNA” value was ≤ 0.2. For QYPD the value was ≤ 0.2. With ELPT the figure was ≤ 0.2; with CRSC, ≤ 0.2. Turning to DFQR, the “one-hybrid fitness for binding NBS DNA” value was ≤ 0.2. With FMNT the figure was ≤ 0.2. For HCPS the value was ≤ 0.2; for CTNR, ≤ 0.2; for SLVR, ≤ 0.2. With CCLA the figure was ≤ 0.2; with QHTR, 0.527. As for VFRV, the “one-hybrid fitness for binding NBS DNA” value was ≤ 0.2. For YNLC the value was ≤ 0.2; for FMRR, 0.216. For QQLV the value was ≤ 0.2; for CYRY, ≤ 0.2; for HASF, ≤ 0.2. For RSTW the value was ≤ 0.2; for TCGA, ≤ 0.2.

On to CRLN, for which the “one-hybrid fitness for binding NBS DNA” value is ≤ 0.2. For IKSY the value was ≤ 0.2; for NYAI, ≤ 0.2; for PGLI, ≤ 0.2.

Turning to VANL, the “one-hybrid fitness for binding NBS DNA” value is ≤ 0.2.

Consider PRAH, for which the “one-hybrid fitness for binding NBS DNA” value was ≤ 0.2. With NEGA the figure was ≤ 0.2; with LGVC, ≤ 0.2. With GAMY the figure was ≤ 0.2. For EAIS the value was ≤ 0.2; for LQDR, ≤ 0.2; for YLKY, ≤ 0.2. On to QPGW, for which the “one-hybrid fitness for binding NBS DNA” value was ≤ 0.2. For QTDY the value was ≤ 0.2; for KMKP, ≤ 0.2; for QTWN, ≤ 0.2. With WETF the figure was ≤ 0.2; with LASN, ≤ 0.2. With CFWR the figure was ≤ 0.2; with LKIL, ≤ 0.2. Regarding AKYY, the “one-hybrid fitness for binding NBS DNA” value was ≤ 0.2. RMEC: the “one-hybrid fitness for binding NBS DNA” value was ≤ 0.2. With HTMR the figure was ≤ 0.2; with NIVQ, ≤ 0.2. With VQSY the figure was ≤ 0.2. For KSLR the value was ≤ 0.2. With GRRI, the “one-hybrid fitness for binding NBS DNA” value is ≤ 0.2. For HRFV the value was ≤ 0.2. For THAC the value was ≤ 0.2; for RFLD, ≤ 0.2.

As to LIFD, the “one-hybrid fitness for binding NBS DNA” value is ≤ 0.2. PQWS: the “one-hybrid fitness for binding NBS DNA” value is ≤ 0.2. For TQAD the value was ≤ 0.2; for RYPI, ≤ 0.2. With KNIG the figure was ≤ 0.2. For APLG the value was ≤ 0.2. ALQD: the “one-hybrid fitness for binding NBS DNA” value is ≤ 0.2. With SRTP the figure was ≤ 0.2; with PLSH, ≤ 0.2. For PNFG the value was ≤ 0.2; for ERMR, ≤ 0.2.

Consider LVRY, for which the “one-hybrid fitness for binding NBS DNA” value is ≤ 0.2. As to RCDI, the “one-hybrid fitness for binding NBS DNA” value was ≤ 0.2.

Regarding RYIP, the “one-hybrid fitness for binding NBS DNA” value is ≤ 0.2. With RRKI the figure was 0.607; with ETQW, ≤ 0.2. For DAVS the value was ≤ 0.2.

For ENWS, the “one-hybrid fitness for binding NBS DNA” value is ≤ 0.2. For LVWS the value was ≤ 0.2. For AESG the value was ≤ 0.2. For AGVD the value was ≤ 0.2; for VGAR, ≤ 0.2. In the case of QSTF, the “one-hybrid fitness for binding NBS DNA” value is ≤ 0.2. Consider LHAR, for which the “one-hybrid fitness for binding NBS DNA” value was ≤ 0.2. For PVFF the value was ≤ 0.2; for TGST, ≤ 0.2. For TLPI the value was ≤ 0.2; for YQDS, ≤ 0.2.
